The text below walks through data of paper PMC4336329 (PLoS ONE, 2015).

Hit rate of the full screen: of about 310,000 compounds, about 2,200 (0.71%) showed an effect of 50% or more. The effect is printed as a negative number. This is one part of the list.

In this experiment the target is human ether-à-go-go-related gene (hERG) potassium channel (human, UniProt Q12809). Briefly: primary screen, population patch clamp on CHO cells stably expressing hERG.
Chain of human ether-à-go-go-related gene (hERG) potassium channel (Q12809 whole entry, looked up): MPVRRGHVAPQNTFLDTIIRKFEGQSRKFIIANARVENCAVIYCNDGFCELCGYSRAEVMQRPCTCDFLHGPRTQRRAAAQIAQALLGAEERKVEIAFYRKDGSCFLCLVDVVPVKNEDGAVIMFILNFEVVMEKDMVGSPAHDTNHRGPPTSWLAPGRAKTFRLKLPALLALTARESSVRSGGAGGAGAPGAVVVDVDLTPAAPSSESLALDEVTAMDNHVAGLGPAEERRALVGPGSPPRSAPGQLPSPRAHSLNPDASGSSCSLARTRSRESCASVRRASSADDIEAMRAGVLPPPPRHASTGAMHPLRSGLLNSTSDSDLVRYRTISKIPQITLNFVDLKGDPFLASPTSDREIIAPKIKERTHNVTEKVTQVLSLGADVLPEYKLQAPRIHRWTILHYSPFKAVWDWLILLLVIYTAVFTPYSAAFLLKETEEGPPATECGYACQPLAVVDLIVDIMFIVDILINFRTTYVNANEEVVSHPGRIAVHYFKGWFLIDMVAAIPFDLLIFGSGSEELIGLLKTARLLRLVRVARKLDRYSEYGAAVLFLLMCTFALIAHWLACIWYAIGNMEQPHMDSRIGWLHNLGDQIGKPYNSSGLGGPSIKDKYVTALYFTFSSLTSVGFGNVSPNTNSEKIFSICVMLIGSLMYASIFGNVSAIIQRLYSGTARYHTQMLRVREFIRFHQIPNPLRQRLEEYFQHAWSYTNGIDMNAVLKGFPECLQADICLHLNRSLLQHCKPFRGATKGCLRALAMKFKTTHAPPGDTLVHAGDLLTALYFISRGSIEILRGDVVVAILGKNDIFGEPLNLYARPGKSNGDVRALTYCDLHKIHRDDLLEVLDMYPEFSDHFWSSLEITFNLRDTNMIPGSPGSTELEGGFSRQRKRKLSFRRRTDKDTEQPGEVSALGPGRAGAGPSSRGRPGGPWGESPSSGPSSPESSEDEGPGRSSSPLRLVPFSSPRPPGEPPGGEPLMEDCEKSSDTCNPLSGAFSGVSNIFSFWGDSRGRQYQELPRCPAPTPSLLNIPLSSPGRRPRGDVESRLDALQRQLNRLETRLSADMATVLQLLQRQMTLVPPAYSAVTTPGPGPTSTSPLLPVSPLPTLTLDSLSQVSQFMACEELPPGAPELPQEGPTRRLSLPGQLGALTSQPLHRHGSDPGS
Consider `COc1cc(C(C)=O)ccc1OCC(=O)Nc1ccccc1N1CCCCC1`, for which the “hERG current change (%, negative = inhibition) at 1uM” value stood at 7.1%.
With `CCCN(CCO)Cc1ccc(F)c(Br)c1`, the “hERG current change (%, negative = inhibition) at 1uM” value was 2.37%.
Turning to `CN(C)C(=O)CSc1nnc(-c2cnccn2)n1C`, the “hERG current change (%, negative = inhibition) at 1uM” value worked out at 10.7%.
For the compound `CCOP(=O)(Nc1ccc2oc(=O)c3ccccc3c2c1)OCC`, the “hERG current change (%, negative = inhibition) at 1uM” value turned out to be 2.2%.
In the case of `CCOc1ccc(CCNC(=O)COC(=O)COc2cc(C)cc(C)c2)cc1OCC`, the “hERG current change (%, negative = inhibition) at 1uM” value worked out at 7.4%.
On to `COc1ccc(OC)c(C(O)c2nc3ccccc3n2C)c1` (stereo not shown), for which the “hERG current change (%, negative = inhibition) at 1uM” value was determined as 1.43%.
As to `COc1ccccc1N(CC(=O)N/N=C/c1ccc(OCC(=O)NCc2ccco2)cc1)S(=O)(=O)c1ccc(C)cc1`, the “hERG current change (%, negative = inhibition) at 1uM” value worked out at 11.7%.
For the compound `COCCC(=O)N1CCC(Oc2ccc(C(=O)NCCc3cn[nH]c3)cc2)CC1`, the “hERG current change (%, negative = inhibition) at 1uM” value is listed as 14.5%.
As for `COc1cccc(CNC(=O)CC2Sc3ccccc3NC2=O)c1` (stereo not shown), the “hERG current change (%, negative = inhibition) at 1uM” value is reported as -1.03%.
For `OCCC1CN(Cc2cnc(-c3ccc(Cl)cc3)nc2)CCN1C1CCCCC1` (stereo not shown), the “hERG current change (%, negative = inhibition) at 1uM” value is given as -31.1%.
Take `CC1CC(C)CN(S(=O)(=O)N2CCCC(C(=O)NCCc3ccccc3)C2)C1` (stereo not shown): the “hERG current change (%, negative = inhibition) at 1uM” value came to 12.9%.
With `O=P1(Nc2cccnc2)COc2ccccc2OC1`, the “hERG current change (%, negative = inhibition) at 1uM” value amounted to 20.3%.
The value for `COc1cc2ccccc2cc1C(=O)O` was 10.6%.
With `CCc1nc2ccccc2c(C(=O)OCC(=O)N2CC(C)OC(C)C2)c1C` (stereo not shown), the “hERG current change (%, negative = inhibition) at 1uM” value came out at 12.4%.
Take `COc1cccc2c(=O)cn[nH]c12`: the “hERG current change (%, negative = inhibition) at 1uM” value is recorded as -0.576%.
In the case of `Cc1cccn2c(=O)c(/C=C(\C#N)C(=O)NC3CCS(=O)(=O)C3)c(Oc3ccccc3Cl)nc12` (stereo not shown), the “hERG current change (%, negative = inhibition) at 1uM” value came to 15.1%.
The value for `CCOC(=O)C1CN(c2cc3c(cc2F)c(=O)c(C(=O)O)cn3CC)OC1C(=O)OCC` (stereo not shown) was 2.5%; that for `CC(Sc1nnnn1C)C(=O)Nc1cc(S(=O)(=O)N2CCCCC2)ccc1Cl` (stereo not shown) was 5.21%.
Regarding `CC1CN(C(=O)CCC(=O)NCCCN2C(C)CCCC2C)c2ccccc2O1` (stereo not shown), the “hERG current change (%, negative = inhibition) at 1uM” value is on record as -3.47%.
`Cc1ccc(N=C2CCCCCN2C)c(C#N)c1.Cl`: the “hERG current change (%, negative = inhibition) at 1uM” value is -4.76%.
For the compound `O=C(NCCCCCCNC(=O)c1ccc(Br)s1)c1ccc(Br)s1`, the “hERG current change (%, negative = inhibition) at 1uM” value is 4.84%.
On to `O=Cc1cnc(N2CCN(c3ccccc3)CC2)s1`, for which the “hERG current change (%, negative = inhibition) at 1uM” value was 7.29%.
Regarding `COc1ccc(-c2cc(C3CC3)nc(N)c2C#N)cc1`, the “hERG current change (%, negative = inhibition) at 1uM” value is recorded as 15.2%.
The value for `CCc1c(C)nc2[nH]nc(NC(=O)C(F)(F)F)n2c1=O` was 15%; that for `COc1ccc(CCNC(=O)CC2SC(=NCc3ccccc3OC)NC2=O)cc1` (stereo not shown) was -5.3%.
On to `CC(=O)Nc1ccc2c(c1)ncn2-c1ccccc1`, for which the “hERG current change (%, negative = inhibition) at 1uM” value is listed as 13.8%.
Under `COc1ccccc1CCC(=O)NNC(=O)c1ccccc1` stands 9.45%.
In the case of `Cn1c(CNS(=O)(=O)c2ccc(Br)cc2)n[nH]c1=S`, the “hERG current change (%, negative = inhibition) at 1uM” value was -46.9%.
Regarding `Cc1c(C(=O)NCc2ccc3c(c2)OCO3)oc2ccc(Br)cc12`, the “hERG current change (%, negative = inhibition) at 1uM” value worked out at 10.8%.
Consider `CCC1CCCCN1C(=O)Cn1c(=O)oc2ccccc21` (stereo not shown), for which the “hERG current change (%, negative = inhibition) at 1uM” value was 5.94%.
Turning to `COc1ccc(/C(O)=C2/C(=O)C(=O)N(c3nc(C)c(C)s3)C2c2ccco2)cc1` (stereo not shown), the “hERG current change (%, negative = inhibition) at 1uM” value is recorded as 12.8%.
For the compound `CCc1cc2cc3c(cc2nc1SCC(=O)Nc1cc(OC)c(OC)cc1C(=O)O)OCO3`, the “hERG current change (%, negative = inhibition) at 1uM” value is listed as -0.115%.
Take `C[C@@H]1O[C@@H](OC2C(O)C(OCCc3ccc(O)c(O)c3)OC(CO)C2OC(=O)/C=C/c2ccc(O)c(O)c2)[C@H](O)[C@H](O)[C@H]1O` (stereo partly shown): the “hERG current change (%, negative = inhibition) at 1uM” value came to 14.1%.
`O=C(O)c1ccc2c3c(cccc13)C(=O)N(c1cccc3ccccc13)C2=O`: the “hERG current change (%, negative = inhibition) at 1uM” value is on record as 20.9%.
Take `COc1cc(S(=O)(=O)N2CCOCC2)ccc1NC(=O)CN1c2cccc3cccc(c23)S1(=O)=O`: the “hERG current change (%, negative = inhibition) at 1uM” value was -3.69%.
Turning to `COc1ccc(CCNC(=O)c2sc3cc(C)ccc3c2Cl)cc1`, the “hERG current change (%, negative = inhibition) at 1uM” value was found to be 1.97%.
As for `Cn1cc(Br)c(C(=O)NNC(=O)c2cccc(Br)c2)n1`, the “hERG current change (%, negative = inhibition) at 1uM” value turned out to be 5.87%.
With `COc1cc(C2NC(=O)NC(C)=C2C(=O)OC2CCCC(C)C2)cc(Br)c1O` (stereo not shown), the “hERG current change (%, negative = inhibition) at 1uM” value turned out to be 6.78%.
As to `COc1cc(/C=N/Nc2nncn2N)ccc1OCc1c(C)no[n+]1[O-]`, the “hERG current change (%, negative = inhibition) at 1uM” value was 6.95%.
Consider `CNC(=O)C1=C(C)Nc2nc3ccccc3n2C1c1cccc(OC)c1` (stereo not shown), for which the “hERG current change (%, negative = inhibition) at 1uM” value is on record as -2.68%.
Consider `COCCNC(=O)c1ccccc1-c1ccccc1C(=O)O`, for which the “hERG current change (%, negative = inhibition) at 1uM” value is -1.37%.
For the compound `COc1ccc(N(CC(=O)NCc2ccc(F)cc2)C(=O)Cn2nnc(-c3ccc(C)o3)n2)cc1OC`, the “hERG current change (%, negative = inhibition) at 1uM” value stood at 8.09%.
As to `O=[N+]([O-])c1cc(Cl)ccc1N1CCCCC1`, the “hERG current change (%, negative = inhibition) at 1uM” value came out at 13.1%.
